MIC of invasive clinical C. tropicalis isolates, CLSI broth microdilution (fluconazole 0.12-256 mg/L, up to 1,024 for the azole-resistant cluster and its neighbour group; other ranges not stated); higher = less susceptible. Call: susceptible or wild type [S] / resistant or non-wild type [R] by CLSI breakpoints or cut-offs; intermediate and dose-dependent carry no call. '<=' and '>=' at the end values are inferred; the source marks only some of them. Isolates are numbered anew.
Tests used:
Experiment in all cases: CLSI broth microdilution.
itraconazole = compound: CCC(C)n1ncn(-c2ccc(N3CCN(c4ccc(OCC5COC(Cn6cncn6)(c6ccc(Cl)cc6Cl)O5)cc4)CC3)cc2)c1=O [itraconazole]
micafungin = compound: CCCCCOc1ccc(-c2cc(-c3ccc(C(=O)N[C@H]4C[C@@H](O)[C@@H](O)NC(=O)[C@@H]5[C@@H](O)[C@@H](C)CN5C(=O)[C@H]([C@H](O)CC(N)=O)NC(=O)[C@H]([C@H](O)[C@@H](O)c5ccc(O)c(OS(=O)(=O)O)c5)NC(=O)[C@@H]5C[C@@H](O)CN5C(=O)[C@H]([C@@H](C)O)NC4=O)cc3)no2)cc1 [micafungin]
anidulafungin = compound: CCCCCOc1ccc(-c2ccc(-c3ccc(C(=O)N[C@H]4C[C@@H](O)[C@@H](O)NC(=O)[C@@H]5[C@@H](O)[C@@H](C)CN5C(=O)[C@H]([C@@H](C)O)NC(=O)[C@H]([C@H](O)[C@@H](O)c5ccc(O)cc5)NC(=O)[C@@H]5C[C@@H](O)CN5C(=O)[C@H]([C@@H](C)O)NC4=O)cc3)cc2)cc1 [anidulafungin]
posaconazole = compound: CC[C@@H]([C@H](C)O)n1ncn(-c2ccc(N3CCN(c4ccc(OC[C@@H]5CO[C@@](Cn6cncn6)(c6ccc(F)cc6F)C5)cc4)CC3)cc2)c1=O [posaconazole]
caspofungin = compound: CC[C@H](C)C[C@H](C)CCCCCCCCC(=O)N[C@H]1C[C@@H](O)[C@@H](NCCN)NC(=O)[C@@H]2[C@@H](O)CCN2C(=O)[C@H]([C@H](O)CCN)NC(=O)[C@H]([C@H](O)[C@@H](O)c2ccc(O)cc2)NC(=O)[C@@H]2C[C@@H](O)CN2C(=O)[C@H]([C@@H](C)O)NC1=O [caspofungin]
voriconazole = compound: C[C@@H](c1ncncc1F)[C@](O)(Cn1cncn1)c1ccc(F)cc1F [voriconazole]
amphotericin B = compound: C[C@@H]1[C@H](O)[C@@H](C)/C=C/C=C/C=C/C=C/C=C/C=C/C=C/[C@H](O[C@@H]2O[C@H](C)[C@@H](O)[C@H](N)[C@@H]2O)C[C@@H]2O[C@](O)(C[C@@H](O)C[C@@H](O)[C@H](O)CC[C@@H](O)C[C@@H](O)CC(=O)O[C@H]1C)C[C@H](O)[C@H]2C(=O)O [amphotericin B]
flucytosine = compound: Nc1[nH]c(=O)ncc1F [flucytosine]
fluconazole = compound: OC(Cn1cncn1)(Cn1cncn1)c1ccc(F)cc1F [fluconazole]

Test System | MIC (itraconazole) | MIC (micafungin) | MIC (anidulafungin) | MIC (posaconazole) | MIC (caspofungin) | MIC (voriconazole) | MIC (amphotericin B) | MIC (flucytosine) | MIC (fluconazole)
Candida tropicalis isolate 20 (ERG11 copies: 8, Erg11p: Y132F, S154F (heterozygous)) | 0.25 mg/L [S] | 0.03 mg/L [S] | 0.06 mg/L [S] | 0.25 mg/L [S] | 0.06 mg/L [S] | 0.25 µg/mL | 1 mg/L [S] | ≤ 0.06 mg/L [S] | 4 µg/mL
Candida tropicalis isolate 177 (ERG11 copies: 2, Erg11p: no key change) | 0.12 mg/L [S] | 0.015 mg/L [S] | 0.12 mg/L [S] | 0.12 mg/L [S] | 0.03 mg/L [S] | 0.03 mg/L [S] | 0.25 mg/L [S] | 0.12 mg/L [S] | 0.5 mg/L [S]
Candida tropicalis isolate 146 (ERG11 copies: 2, Erg11p: no key change) | 0.12 mg/L [S] | 0.03 mg/L [S] | 0.03 mg/L [S] | 0.12 mg/L [S] | 0.06 mg/L [S] | 0.06 mg/L [S] | 1 mg/L [S] | ≤ 0.06 mg/L [S] | 1 mg/L [S]
Candida tropicalis isolate 324 (ERG11 copies: 2, Erg11p: no key change) | 0.03 mg/L [S] | 0.015 mg/L [S] | ≤ 0.015 mg/L [S] | 0.06 mg/L [S] | 0.03 mg/L [S] | 0.03 mg/L [S] | 0.25 mg/L [S] | ≤ 0.06 mg/L [S] | 0.5 mg/L [S]
Candida tropicalis isolate 365 (ERG11 copies: 2, Erg11p: no key change) | 0.25 mg/L [S] | 0.03 mg/L [S] | 0.12 mg/L [S] | 0.25 mg/L [S] | 0.06 mg/L [S] | 0.12 mg/L [S] | 0.5 mg/L [S] | ≤ 0.06 mg/L [S] | 2 mg/L [S]
Candida tropicalis isolate 116 (ERG11 copies: 2, Erg11p: no key change) | 0.25 mg/L [S] | 0.015 mg/L [S] | ≤ 0.015 mg/L [S] | 0.25 mg/L [S] | 0.03 mg/L [S] | 0.12 mg/L [S] | 1 mg/L [S] | ≤ 0.06 mg/L [S] | 2 mg/L [S]
Candida tropicalis isolate 447 (ERG11 copies: 2, Erg11p: no key change) | 0.25 mg/L [S] | 0.03 mg/L [S] | 0.25 mg/L [S] | 0.12 mg/L [S] | 0.12 mg/L [S] | 2 mg/L [R] | 0.25 mg/L [S] | ≤ 0.06 mg/L [S] | 32 mg/L [R]
Candida tropicalis isolate 65 (ERG11 copies: 2, Erg11p: no key change) | 0.25 mg/L [S] | 0.03 mg/L [S] | 0.03 mg/L [S] | 0.25 mg/L [S] | 0.03 mg/L [S] | 0.06 mg/L [S] | 0.5 mg/L [S] | ≤ 0.06 mg/L [S] | 2 mg/L [S]
Candida tropicalis isolate 187 (ERG11 copies: 2, Erg11p: no key change) | 0.5 mg/L [S] | 0.06 mg/L [S] | 0.06 mg/L [S] | 0.5 mg/L [R] | 0.03 mg/L [S] | 0.5 µg/mL | 0.5 mg/L [S] | 0.25 mg/L [S] | 4 µg/mL
Candida tropicalis isolate 181 (ERG11 copies: 2, Erg11p: no key change) | 0.25 mg/L [S] | 0.03 mg/L [S] | ≤ 0.015 mg/L [S] | 0.25 mg/L [S] | 0.06 mg/L [S] | 0.12 mg/L [S] | 1 mg/L [S] | 0.12 mg/L [S] | 2 mg/L [S]
Candida tropicalis isolate 162 (ERG11 copies: 2, Erg11p: no key change) | 0.5 mg/L [S] | 0.03 mg/L [S] | 0.12 mg/L [S] | 1 mg/L [R] | 0.03 mg/L [S] | 0.25 µg/mL | 0.5 mg/L [S] | 0.12 mg/L [S] | 2 mg/L [S]
Candida tropicalis isolate 237 (ERG11 copies: 7, Erg11p: Y132F, S154F (heterozygous)) | 1 mg/L [R] | 0.06 mg/L [S] | 0.06 mg/L [S] | 1 mg/L [R] | 0.03 mg/L [S] | ≥ 8 mg/L [R] | 1 mg/L [S] | ≤ 0.06 mg/L [S] | 512 mg/L [R]
Candida tropicalis isolate 205 (ERG11 copies: 6, Erg11p: Y132F, S154F (heterozygous)) | 0.25 mg/L [S] | 0.03 mg/L [S] | 0.06 mg/L [S] | 0.5 mg/L [R] | 0.06 mg/L [S] | 4 mg/L [R] | 0.5 mg/L [S] | ≤ 0.06 mg/L [S] | 256 mg/L [R]
Candida tropicalis isolate 57 (ERG11 copies: 2, Erg11p: no key change) | 0.25 mg/L [S] | 0.03 mg/L [S] | 0.03 mg/L [S] | 0.25 mg/L [S] | 0.12 mg/L [S] | 0.12 mg/L [S] | 1 mg/L [S] | ≤ 0.06 mg/L [S] | 1 mg/L [S]
Candida tropicalis isolate 211 (ERG11 copies: 2, Erg11p: no key change) | 0.25 mg/L [S] | 0.03 mg/L [S] | 0.06 mg/L [S] | 0.25 mg/L [S] | 0.03 mg/L [S] | 0.25 µg/mL | 1 mg/L [S] | 0.12 mg/L [S] | 2 mg/L [S]
Candida tropicalis isolate 130 (ERG11 copies: 2, Erg11p: no key change) | 0.25 mg/L [S] | 0.06 mg/L [S] | 0.12 mg/L [S] | 0.12 mg/L [S] | 0.03 mg/L [S] | 0.06 mg/L [S] | 0.5 mg/L [S] | ≤ 0.06 mg/L [S] | 1 mg/L [S]
Candida tropicalis isolate 429 (ERG11 copies: 8, Erg11p: Y132F, S154F (heterozygous)) | 0.5 mg/L [S] | 0.03 mg/L [S] | ≤ 0.015 mg/L [S] | 0.5 mg/L [R] | 0.03 mg/L [S] | ≥ 8 mg/L [R] | 1 mg/L [S] | ≤ 0.06 mg/L [S] | 512 mg/L [R]
Candida tropicalis isolate 77 (ERG11 copies: 7, Erg11p: Y132F, S154F (heterozygous)) | 0.5 mg/L [S] | 0.06 mg/L [S] | 0.12 mg/L [S] | 1 mg/L [R] | 0.03 mg/L [S] | ≥ 8 mg/L [R] | 0.5 mg/L [S] | ≤ 0.06 mg/L [S] | 512 mg/L [R]

Source: the supplement of paper PMC10724272
